# Results: article PMC4336329 (PLoS ONE, 2015)
# The whole screen tested about 310,000 compounds, of which about 14,000 (4.5%) showed an effect of 50% or more. Effects have a minus sign here. Some of the results follow.
# Target: human ether-à-go-go-related gene (hERG) potassium channel (human, UniProt Q12809)
# Assay: primary screen, population patch clamp on CHO cells stably expressing hERG
# 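Note: peak tail current of the secondary pulse compared with the same well before compound.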
# Chain of human ether-à-go-go-related gene (hERG) potassium channel (Q12809 whole entry, looked up): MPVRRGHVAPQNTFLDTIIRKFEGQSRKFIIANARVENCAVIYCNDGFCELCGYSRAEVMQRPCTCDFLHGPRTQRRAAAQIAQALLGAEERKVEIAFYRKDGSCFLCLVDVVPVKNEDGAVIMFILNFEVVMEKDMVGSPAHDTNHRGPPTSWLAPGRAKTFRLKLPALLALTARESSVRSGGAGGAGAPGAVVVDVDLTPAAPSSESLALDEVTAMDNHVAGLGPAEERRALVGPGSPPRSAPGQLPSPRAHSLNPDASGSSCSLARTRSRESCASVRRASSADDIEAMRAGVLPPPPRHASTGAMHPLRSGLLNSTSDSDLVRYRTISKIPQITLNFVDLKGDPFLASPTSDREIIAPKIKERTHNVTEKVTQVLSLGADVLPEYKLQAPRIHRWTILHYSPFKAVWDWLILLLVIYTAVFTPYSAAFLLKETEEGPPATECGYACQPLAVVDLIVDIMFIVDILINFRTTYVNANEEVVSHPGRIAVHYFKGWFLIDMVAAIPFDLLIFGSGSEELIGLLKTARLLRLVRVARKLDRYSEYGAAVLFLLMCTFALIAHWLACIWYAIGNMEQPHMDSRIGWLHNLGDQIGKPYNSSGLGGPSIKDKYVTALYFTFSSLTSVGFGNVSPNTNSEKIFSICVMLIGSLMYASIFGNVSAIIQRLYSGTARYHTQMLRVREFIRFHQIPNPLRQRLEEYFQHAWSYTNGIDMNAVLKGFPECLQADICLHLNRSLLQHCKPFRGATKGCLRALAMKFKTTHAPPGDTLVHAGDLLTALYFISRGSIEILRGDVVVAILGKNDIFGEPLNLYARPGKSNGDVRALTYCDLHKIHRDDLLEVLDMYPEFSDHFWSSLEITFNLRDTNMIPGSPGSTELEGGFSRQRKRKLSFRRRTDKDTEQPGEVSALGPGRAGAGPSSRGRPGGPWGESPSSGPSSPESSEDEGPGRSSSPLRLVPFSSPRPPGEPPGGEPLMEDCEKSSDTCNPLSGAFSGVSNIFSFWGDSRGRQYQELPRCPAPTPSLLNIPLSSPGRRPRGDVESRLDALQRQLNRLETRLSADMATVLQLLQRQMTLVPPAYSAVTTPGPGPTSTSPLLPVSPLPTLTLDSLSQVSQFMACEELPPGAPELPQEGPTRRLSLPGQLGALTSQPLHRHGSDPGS
row,SMILES,"hERG current change (%, negative = inhibition) at 10uM"
1,Cc1cccc(Oc2cc([N+](=O)[O-])cc3c2C(=O)Nc2ccccc2O3)c1,-4.03%
2,CC(C)n1nnc(-c2ccc(OCc3ccccc3F)cc2)n1,13.9%
3,CC(CC(=O)O)CC(=O)N1CCN(S(=O)(=O)c2cccs2)CC1 (stereo not drawn),-23.9%
4,Cc1ccc2nc3sc(C(=O)NCc4ccco4)c(N)c3cc2c1,1.38%
5,CCC(C)NC(=O)COC(=O)c1ccccc1OCC(=O)Nc1ccc(Br)cc1 (stereo not drawn),6.17%
6,CCOP(=O)(OCC)C(NC(=O)c1ccccc1C)C(Cl)(Cl)Cl (stereo not drawn),6.98%
7,CSc1ccc(CN2CCCC(CO)(Cc3ccccc3)C2)cc1 (stereo not drawn),-60.7%
8,COc1ccc(C(CC(=O)N2CCCCC2)C(C)C)cc1 (stereo not drawn),15.8%
9,Cc1ccc(NC(=O)COC(=O)C2CCC(=O)N2)c([N+](=O)[O-])c1 (stereo not drawn),-0.885%
10,O=C(NC1CCCc2ccccc21)C1CCCC1 (stereo not drawn),21.4%
11,Cc1ccc(-n2nnnc2SCn2nnc3ccccc3c2=O)c(C)c1,0.882%
12,CC(C)COP(=O)(c1ccc(N(C)C)cc1)C(O)c1ccc(Br)cc1 (stereo not drawn),8.63%
13,Cc1nn(-c2ccccc2)c(C)c1/C=N/N1CCN(c2ccccn2)CC1,8.89%
14,Cc1c(C(=O)c2ccc(Cl)c(Cl)c2)cnc2cc3c(cc12)OCO3,2.02%
15,O=C(COc1cccnc1[N+](=O)[O-])N1CCc2ccccc21,9.5%
16,C=CCn1c(SCC(=O)Nc2ccc3c(c2)OCCO3)nnc1-c1ccccn1,-28.3%
17,CC(=O)N(Cc1ccccc1)c1ccc(C(=O)O)cc1,2.19%
18,CC1(C)CC(=O)C2=C(C1)N(c1cccc(O)c1)C1=C(C2)C(=O)CC(C)(C)C1,-9.18%
19,CC(=O)N1CCc2cc(S(=O)(=O)NC(C(=O)N3CCN(c4ccccc4F)CC3)C(C)C)ccc21 (stereo not drawn),-1.28%
20,Cc1ccc(C(=O)Nc2ccccc2Oc2ccccc2)cc1[N+](=O)[O-],-9.22%
21,O=C(Cc1ccccc1)NCC(=O)N/N=C/c1ccc([N+](=O)[O-])s1,2.04%
22,Cn1c(=O)c(C(=O)CN2CCOCC2)c(N)n(Cc2ccccc2)c1=O,-13.2%

row,SMILES,"hERG current change (%, negative = inhibition) at 10uM"
1,CCCSC1=N/C(=C\C=C\c2ccco2)C(=O)S1,3.74%
2,O=C1/C(=C\c2cccnc2)Sc2ccccc21,12.3%
3,CCOC(=O)CCNc1n[nH]c(=O)[nH]c1=O,13.2%
4,O=C(NCCc1ccccc1)c1ccccc1C(=O)NCCc1ccccc1,11.4%
5,O=P(O)(Oc1ccccc1)OC(c1ccccc1)C(F)(F)C(F)(F)F (stereo not drawn),27.3%
6,COc1cccc(C(=O)N2CCN(Cc3cn[nH]c3-c3ccc(F)cc3F)CC2)c1,-10.4%
7,O=C(Nn1cnnc1)c1csc2ccccc12,0.366%
8,N/C(=N\OC(=O)c1ccco1)c1cccc([N+](=O)[O-])c1,14.9%
9,O=C(Nc1c2c(nn1-c1ccccc1)CS(=O)(=O)C2)C1CCCC1,-0.437%
10,CCn1cc(CN2CCC(n3nccc3NC(=O)c3cccc(F)c3)CC2)cn1,-6.71%
11,C=Cn1ccnc1P(=S)(c1ccccc1)c1nccn1C=C,29.1%
12,CS(=O)(=O)N(CC(=O)N1CCOCC1)Cc1ccccc1,-9.46%
13,O=c1[nH]c2ccc(S(=O)(=O)Nc3ccc(Cl)cc3)cc2o1,22.9%
14,O=C1C2CCCN2C(c2ccncc2)N1c1ccc(Cl)c(Cl)c1 (stereo not drawn),-33.3%
15,NC(=O)CC(NC(=O)Cc1ccc(Br)cc1)c1ccc(N2CCC(Cc3ccccc3)CC2)c([N+](=O)[O-])c1 (stereo not drawn),6.04%
16,COC(=O)c1c(NC(=O)Cc2cccs2)sc(C(=O)NC2CCCCC2)c1C,6.98%
17,Cc1ccccc1Cn1nnc(-c2ccc3c(c2)OCO3)n1,4.96%
18,O=c1c(-c2ccc(O)cc2O)coc2cc(O)cc(O)c12,-4.59%
19,Cc1ccc(CN(C)C(=O)c2cccc(S(=O)(=O)N3CCN(Cc4ccccc4)CC3)c2)o1,-31.5%
20,COC(=O)c1cc(C(=O)OCC(=O)N2c3ccccc3NC(=O)C2(C)C)cc([N+](=O)[O-])c1,-38.2%
21,O=C(COc1ccc2ccc(=O)oc2c1)NC1CCCC1,13.4%
22,O=C(Nc1c(C(=O)Nc2cccc(F)c2)oc2ccccc12)c1ccc2c(c1)OCO2,-2.96%

row,SMILES,"hERG current change (%, negative = inhibition) at 10uM"
1,CCOC(=O)c1sc(NC(=O)CNC(=O)Cn2cnc3sc(C)c(C)c3c2=O)nc1C,9.53%
2,Cc1nc(CCNC(=O)c2cccs2)cs1,-4.49%
3,COc1ccc(CNC(=O)COC(=O)/C=C/c2cccc(Br)c2)cc1OC,30.1%
4,COc1cccc(NC(=O)CSc2nnnn2C2CCCC2)c1,-10.1%
5,C=C(C)CSc1nncn1/N=C/c1ccc(OC)cc1,8.05%
6,O=C(CCNS(=O)(=O)c1ccccc1C(F)(F)F)NCC(c1ccco1)N1CCCCC1 (stereo not drawn),0.519%
7,Clc1ccc(-c2nnc(-c3cccc4ccccc34)o2)cc1Cl,14.5%
8,C=CCC1CCCCC12NC(=O)NC2=O (stereo not drawn),11.9%
9,CCOC(=O)c1nnn(-c2nonc2N)c1-c1ccc(OC)cc1,-8.87%
10,O=C(O)C1CCCCC1C(=O)NCCCn1ccnc1 (stereo not drawn),6.28%
11,Cc1cccc(C(=O)N2CCC(N3CCC(C(=O)N4CCOCC4)CC3)CC2)c1,-9.81%
12,COc1ccc(C(=O)COc2ccc3ccc(=O)oc3c2)cc1,-3.32%
13,CC(C)CC1NC(=S)N(C2CCCCC2)C1=O (stereo not drawn),2.9%
14,COc1ccc(CN(C)C2CCCCC2)cc1,-25.1%
15,COc1ccc(N2C(=O)CC(Sc3n[nH]c(-c4ccccc4)n3)C2=O)cc1 (stereo not drawn),-0.496%
16,O=C(NCCS(=O)(=O)N1CCN(c2ccc(F)cc2)CC1)c1ccc2c(c1)OCO2,-9.49%
17,O=c1c2ccccc2ncn1CCCSc1ccccc1,-37.6%
18,CCNCC(=O)N1c2ccccc2CCc2ccc(NC(C)=O)cc21,32.8%
19,CCOc1ccc(N(CC(=O)NCCc2ccccc2)C(=O)c2csnn2)cc1,-48.8%
20,CCOC(=O)c1c(NC(=O)COC(=O)CCOc2ccc(OCC)cc2)sc(C(=O)N(C)C)c1C,-8.87%
21,Cc1cc(=O)oc2cc(OCc3ccc(C(=O)OCC(=O)N(C)C4CCS(=O)(=O)C4)cc3)ccc12 (stereo not drawn),-35.2%
22,Cc1cc(C)c2oc(-c3cccc(NC(=O)c4ccc(F)cc4)c3)nc2c1,2.99%

row,SMILES,"hERG current change (%, negative = inhibition) at 10uM"
1,Cc1cc(C(=O)N2CCN(c3ccc([N+](=O)[O-])cc3)CC2)c(C)o1,-73.5%
2,Cc1ccc(-c2c(C(=O)N/N=C/C3CC=CCC3)nnn2-c2nonc2N)cc1 (stereo not drawn),20.5%
3,COCC(CN1CCN(C2=NS(=O)(=O)c3ccccc32)CC1)OC(=O)c1ccc(OC)cc1 (stereo not drawn),-43.3%
4,O=C(CNC(=O)c1cccs1)N/N=C/c1c[nH]c2ccccc12,2.63%
5,O=C(COC(=O)/C=C/c1ccc(S(=O)(=O)N2CCCCCC2)cc1)NCc1ccccc1Cl,12%
6,Cc1c(NC(=O)COc2ccccc2Cl)c(=O)n(-c2ccccc2)n1C,-4.59%
7,Cc1ccc(-n2nc3ccc(NC(=O)c4cccc([N+](=O)[O-])c4C)cc3n2)cc1,11.1%
8,Cc1ccc(NC(=O)N2CCOCC2)c(C)c1,18.8%
9,Fc1ccc(CNc2ccc(N3CCN(Cc4ccccc4)CC3)cc2)cc1,-30.1%
10,CCOC(=O)N1CCC(NC(=O)CS(=O)(=O)Cc2nc(-c3ccccc3C)oc2C)CC1,-4.7%
11,O=C(O)c1ccc(NS(=O)(=O)c2cc(C(=O)O)ccc2Br)cc1,17%
12,O=C(N/N=C/c1ccc(Cl)cc1Cl)c1n[nH]c2c1CCCC2,11.2%
13,Nc1c(C(=O)NCCc2ccccc2)c2nc3ccccc3nc2n1CCN1CCOCC1,-3.49%
14,Nc1c(C(=O)CSc2nc(-c3ccccc3)cs2)c(=O)[nH]c(=O)n1C1CC1,-7.63%
15,O=C(CCCn1c(=S)[nH]c2ccsc2c1=O)NC1CCCCC1,7.91%
16,CC1(c2ccc(Cl)cc2Cl)NC(=O)N(CC(=O)Nc2ccc3[nH]c(=O)[nH]c3c2)C1=O (stereo not drawn),5.84%
17,Cc1ccc2nc(C)c(C(=O)O)cc2c1,31.7%
18,CSCCC(C)N1CCC(Oc2ccc(C(=O)N3CCCC3)cc2)CC1 (stereo not drawn),-31.3%
19,CCOC(=O)c1cc(-c2ccncc2)nc2c1c(C)nn2C,-14.8%
20,COc1cccc(OC)c1/C(O)=C(\C#N)c1nc2ccccc2[nH]1,-11.3%
21,O=C(NCCN1CCOCC1)c1ccccc1N1C(=O)[C@@H]2Cc3c([nH]c4ccccc34)C(c3ccc(F)cc3)N2C1=O (stereo partly drawn),-47.2%
